From paper PMC4094278, “The Dictyostelium discoideum RACK1 orthologue has roles in growth and development” (Cell Communication and Signaling : CCS, 2014) come the findings set out here.

These are yes or no findings as the source states them, for the method shown. Some binding calls cover weakened binding; strength is not graded here. Tags and fused reporters may be left off the sequences shown.

Holding throughout (assay): two-hybrid; yeast Y190; DdRACK1 in pACT2 (GAL4 AD), G protein subunits in pAS2-1 (GAL4 BD); growth on SD/-Leu/-Trp/-His/+3AT plates and colony-lift β-galactosidase assay read at 1 to 6 h and after 24 h
The target in assay [1] is T1, D. discoideum G protein α11-subunit fused to the GAL4 DNA-binding domain (pAS2-1) (D. discoideum) (UniProt Q8T130).
T1 sequence: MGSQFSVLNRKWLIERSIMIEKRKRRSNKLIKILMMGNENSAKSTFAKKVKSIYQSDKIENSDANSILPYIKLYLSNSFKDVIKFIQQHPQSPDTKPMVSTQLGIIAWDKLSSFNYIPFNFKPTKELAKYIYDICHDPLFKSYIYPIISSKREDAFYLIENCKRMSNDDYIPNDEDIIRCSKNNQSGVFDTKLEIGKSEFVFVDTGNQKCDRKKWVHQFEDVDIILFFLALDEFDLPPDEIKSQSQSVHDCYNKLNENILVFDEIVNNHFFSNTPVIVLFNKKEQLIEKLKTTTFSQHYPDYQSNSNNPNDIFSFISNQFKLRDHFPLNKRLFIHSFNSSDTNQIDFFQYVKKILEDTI

Assay [2] has as its target T2, D. discoideum G protein α1-subunit fused to the GAL4 DNA-binding domain (pAS2-1) (D. discoideum) (UniProt P16894).
T2 sequence: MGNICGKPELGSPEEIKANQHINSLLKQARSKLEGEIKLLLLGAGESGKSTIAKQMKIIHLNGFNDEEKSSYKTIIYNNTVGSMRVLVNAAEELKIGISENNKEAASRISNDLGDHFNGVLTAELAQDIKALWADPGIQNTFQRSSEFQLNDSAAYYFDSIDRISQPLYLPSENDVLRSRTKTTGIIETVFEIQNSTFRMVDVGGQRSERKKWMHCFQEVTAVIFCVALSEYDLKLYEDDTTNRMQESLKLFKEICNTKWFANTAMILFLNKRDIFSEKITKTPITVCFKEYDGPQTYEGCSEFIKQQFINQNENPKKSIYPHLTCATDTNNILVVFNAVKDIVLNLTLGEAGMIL

The target of assay [3] is T3, D. discoideum G protein α8-subunit fused to the GAL4 DNA-binding domain (pAS2-1) (D. discoideum) (UniProt P34046).
T3 sequence: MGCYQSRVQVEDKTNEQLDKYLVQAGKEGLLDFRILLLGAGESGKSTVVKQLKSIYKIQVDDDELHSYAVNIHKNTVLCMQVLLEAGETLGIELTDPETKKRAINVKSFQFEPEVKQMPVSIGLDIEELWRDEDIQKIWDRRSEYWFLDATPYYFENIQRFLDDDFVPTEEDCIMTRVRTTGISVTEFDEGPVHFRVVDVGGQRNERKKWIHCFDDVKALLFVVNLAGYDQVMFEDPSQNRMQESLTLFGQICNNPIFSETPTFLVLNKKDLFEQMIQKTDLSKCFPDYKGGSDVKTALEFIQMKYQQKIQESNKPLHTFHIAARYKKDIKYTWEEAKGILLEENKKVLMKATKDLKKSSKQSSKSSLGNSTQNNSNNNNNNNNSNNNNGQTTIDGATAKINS

The target in assay [4] is T4, D. discoideum G protein α7-subunit fused to the GAL4 DNA-binding domain (pAS2-1) (D. discoideum) (UniProt P34045).
T4 sequence: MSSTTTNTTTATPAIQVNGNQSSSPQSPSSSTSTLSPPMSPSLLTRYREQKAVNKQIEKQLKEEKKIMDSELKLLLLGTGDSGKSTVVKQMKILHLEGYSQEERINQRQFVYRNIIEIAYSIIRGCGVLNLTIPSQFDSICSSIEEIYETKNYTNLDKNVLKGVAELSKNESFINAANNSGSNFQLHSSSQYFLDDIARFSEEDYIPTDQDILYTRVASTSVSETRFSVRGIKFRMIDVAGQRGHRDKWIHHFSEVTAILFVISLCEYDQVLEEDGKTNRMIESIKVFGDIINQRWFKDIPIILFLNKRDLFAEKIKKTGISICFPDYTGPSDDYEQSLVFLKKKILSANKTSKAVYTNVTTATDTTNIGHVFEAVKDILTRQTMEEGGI

Assay [5] has as its target T5, D. discoideum G protein α6-subunit fused to the GAL4 DNA-binding domain (pAS2-1) (D. discoideum) (UniProt P34044).
T5 sequence: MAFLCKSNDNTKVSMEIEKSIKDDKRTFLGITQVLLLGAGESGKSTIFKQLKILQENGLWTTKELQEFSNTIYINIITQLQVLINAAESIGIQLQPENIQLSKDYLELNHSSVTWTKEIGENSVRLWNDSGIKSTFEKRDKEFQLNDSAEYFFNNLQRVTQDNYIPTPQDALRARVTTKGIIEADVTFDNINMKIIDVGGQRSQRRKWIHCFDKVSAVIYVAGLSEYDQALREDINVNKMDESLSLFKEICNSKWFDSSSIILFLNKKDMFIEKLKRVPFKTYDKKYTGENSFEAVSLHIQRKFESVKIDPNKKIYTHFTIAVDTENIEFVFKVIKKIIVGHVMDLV

B1: DdRACK1 fused to the GAL4 activation domain (pACT2) (protein, UniProt P46800 1-329)
chain: MEQQKAPQVTYLEVGSLVGHNGFVTSIAVSPENPDTIISSSRDKTVMVWQLTPTDATSPGKAHRSLKGHSHFVQDVVISHDGQFALSGSWDNTLRLWDITKGVSTRLFKGHTQDVMSVAFSSDNRQIISGSRDATIKVWNTLGECKFTLEGPEAHQDWVSCIRFSPNTPTIVSGSWDNKVKIWDIKSFKCNHTLTDHTGYVNTVTISPDGSLCASGGKDTFACLWELSSGKPLYKLEARNTINALAFSPNKYWLSAATDDKIIIWDLLTKQVLAEIVPEVKEQAFDSKKKKESKPKAPACLSLAWSADGSVLYAGYNDGLIRVYKSSSQ
Consider B1, for which the binding entry in assay [1] was “no binding”; in assay [2], “no binding”; in assay [3] it was “binds”; in assay [4], “no binding”; in assay [5], “no binding”.
